Measured values: publication PMC5217673
Results are given in words; binding and its absence hold for the method and conditions named. In cells and extracts the contact can be indirect. Some results given as binding are weak or reduced against the parent protein; the word gives no strength.

By UniProt entry, the sequences of proteins in these tests, tags left out. Where a name states a change or a piece, a line headed by the entry shows the natural chain unless it says otherwise. Residues count along the entry.
GST-N-WASP WH1 + GBD (residues 30–274) (O00401, residues 30-274): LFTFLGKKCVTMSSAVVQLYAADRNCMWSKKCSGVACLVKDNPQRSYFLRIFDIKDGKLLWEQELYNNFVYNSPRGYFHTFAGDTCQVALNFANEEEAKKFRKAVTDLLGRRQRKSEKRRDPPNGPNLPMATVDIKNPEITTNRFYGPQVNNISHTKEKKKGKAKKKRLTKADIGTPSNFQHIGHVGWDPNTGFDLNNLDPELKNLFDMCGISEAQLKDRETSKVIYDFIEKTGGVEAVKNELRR
GST-N-WASP WH1 domain (residues 30–142) (O00401, residues 30-142): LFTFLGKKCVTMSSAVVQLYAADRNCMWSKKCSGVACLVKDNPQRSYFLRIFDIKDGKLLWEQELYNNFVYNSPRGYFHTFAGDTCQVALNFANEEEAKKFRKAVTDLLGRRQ
GST-N-WASP extended GBD (residues 156–274) (O00401, residues 156-274): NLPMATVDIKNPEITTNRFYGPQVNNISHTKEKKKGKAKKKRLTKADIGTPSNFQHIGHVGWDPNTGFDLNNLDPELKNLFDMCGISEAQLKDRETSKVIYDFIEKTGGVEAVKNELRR
UniProt Q7BCK4: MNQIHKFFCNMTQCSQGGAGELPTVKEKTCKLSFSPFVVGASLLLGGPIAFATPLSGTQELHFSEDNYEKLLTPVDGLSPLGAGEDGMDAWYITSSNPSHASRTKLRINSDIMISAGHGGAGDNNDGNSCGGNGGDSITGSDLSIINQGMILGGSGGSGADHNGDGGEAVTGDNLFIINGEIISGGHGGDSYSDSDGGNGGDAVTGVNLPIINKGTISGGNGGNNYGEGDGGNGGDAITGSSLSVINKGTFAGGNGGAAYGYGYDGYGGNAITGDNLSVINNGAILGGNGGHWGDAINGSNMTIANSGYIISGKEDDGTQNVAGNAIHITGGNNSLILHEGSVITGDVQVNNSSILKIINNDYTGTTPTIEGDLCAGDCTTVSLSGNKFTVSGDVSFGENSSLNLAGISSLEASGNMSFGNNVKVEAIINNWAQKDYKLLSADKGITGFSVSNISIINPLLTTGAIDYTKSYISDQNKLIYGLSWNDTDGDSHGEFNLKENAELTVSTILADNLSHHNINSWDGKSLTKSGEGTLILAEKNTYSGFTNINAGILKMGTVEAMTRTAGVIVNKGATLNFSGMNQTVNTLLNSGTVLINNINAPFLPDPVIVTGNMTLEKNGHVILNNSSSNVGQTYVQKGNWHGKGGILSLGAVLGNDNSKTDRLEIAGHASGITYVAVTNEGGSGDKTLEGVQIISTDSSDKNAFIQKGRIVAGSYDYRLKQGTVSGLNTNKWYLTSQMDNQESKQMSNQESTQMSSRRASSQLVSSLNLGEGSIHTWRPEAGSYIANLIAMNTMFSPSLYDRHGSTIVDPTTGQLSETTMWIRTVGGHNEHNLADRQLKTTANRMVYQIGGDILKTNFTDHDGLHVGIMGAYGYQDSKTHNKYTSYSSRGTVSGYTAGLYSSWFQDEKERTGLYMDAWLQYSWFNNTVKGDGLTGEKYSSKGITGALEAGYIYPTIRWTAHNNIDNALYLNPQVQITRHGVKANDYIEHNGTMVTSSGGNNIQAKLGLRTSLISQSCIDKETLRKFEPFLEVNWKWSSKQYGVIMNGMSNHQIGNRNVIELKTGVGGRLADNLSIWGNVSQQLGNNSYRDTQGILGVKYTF

Columns and labels:
Assay in all cases: pull-down; GST-N-WASP proteins (50 μg) on magnetic GST beads, Myc-IcsA truncations from wheat germ cell-free reactions, 50 mM Tris pH 7.4, 50 mM NaCl, 0.1% Nonidet P-40, 1 h at 4 °C; Western blot against Myc; only the target purified
[1] = biological target: GST-N-WASP extended GBD (residues 156–274) (UniProt O00401)
[2] = biological target: GST-N-WASP WH1 + GBD (residues 30–274) (UniProt O00401)
[3] = biological target: GST-N-WASP WH1 domain (residues 30–142) (UniProt O00401)

Substance | binding [1] | binding [2] | binding [3]
Myc-IcsA residues 53–433 (from UniProt Q7BCK4 53-433) (domain or fragment) | binds |  | 
Myc-IcsA residues 53–508 (from UniProt Q7BCK4 53-508) (domain or fragment) | binds | binds | binds
Myc-IcsA residues 173–433 (from UniProt Q7BCK4 173-433) (domain or fragment) | no binding | binds | binds
Myc-IcsA residues 203–508 (from UniProt Q7BCK4 203-508) (domain or fragment) |  |  | no binding
